These are yes or no findings as the source states them, for the method shown. For part of these data: Binding seen in cells or lysates may run through a third protein. Some entries that bind do so weakly or less than the wild type.
Experiments:
[1] = biological target: β-arrestin-1 (1-163) in pAS2-1 (rat) (UniProt P29066); assay: two-hybrid; co-transformation of pAS2-1 β-arrestin-1 constructs with pACT2 MYPT-1(643-943) into PJ69-4A; selected on Trp/Leu dropout plates, growth on Trp/Leu/Ade dropout plates
[2] = biological target: β-arrestin-1 (1-253) in pAS2-1 (rat) (UniProt P29066); assay: as above
[3] = biological target: β-arrestin-1 (1-418), full length, in pAS2-1 (rat) (UniProt P29066); assay: as above
[4] = biological target: β-arrestin-1 (1-418), full length, in pAS2-1 (rat) (UniProt P29066); assay: two-hybrid; library screen: pAS2-1 β-arrestin-1 as bait, GAL4 activation domain fusion library in pACT2 (Matchmaker human heart cDNA library) as prey, yeast strain PJ69-4A; growth on Trp/Leu/His/Ade dropout plates
[5] = biological target: endogenous MYPT-1 (myosin light chain phosphatase Targeting Subunit) (human (endogenous in HEK-293)) (UniProt O14974); assay: co-IP; AT1aR-293 cells expressing β-arrestin-1-FLAG or β-arrestin-2-FLAG, stimulated with Ang II 1 nM for the indicated time; immunoprecipitation of endogenous MYPT-1 from whole-cell lysate (0.5% Nonidet P-40, 250 mM NaCl, pH 7.5, 4 °C), immunoblot of the FLAG tag

Protein sequences, listed by entry. Tags and fused reporters are not part of them. Lines headed by an entry give the natural chain unless they say otherwise; changes in a name come on top. Residues count along the entry.
UniProt P29066: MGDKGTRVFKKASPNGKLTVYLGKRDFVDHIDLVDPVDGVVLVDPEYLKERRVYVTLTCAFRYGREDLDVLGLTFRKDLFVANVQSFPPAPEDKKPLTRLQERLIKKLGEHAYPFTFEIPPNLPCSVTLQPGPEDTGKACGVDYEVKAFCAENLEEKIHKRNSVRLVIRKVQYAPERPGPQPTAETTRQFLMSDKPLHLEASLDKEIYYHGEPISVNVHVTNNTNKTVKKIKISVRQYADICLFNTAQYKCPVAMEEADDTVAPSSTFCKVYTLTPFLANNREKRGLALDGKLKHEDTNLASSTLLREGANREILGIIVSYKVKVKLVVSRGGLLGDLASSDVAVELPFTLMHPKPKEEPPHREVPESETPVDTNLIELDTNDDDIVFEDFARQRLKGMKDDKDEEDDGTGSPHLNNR
β-arrestin-1 (1-253) in pAS2-1: residues 1-253 of P29066
β-arrestin-1 (1-163) in pAS2-1: residues 1-163 of P29066
UniProt O14974: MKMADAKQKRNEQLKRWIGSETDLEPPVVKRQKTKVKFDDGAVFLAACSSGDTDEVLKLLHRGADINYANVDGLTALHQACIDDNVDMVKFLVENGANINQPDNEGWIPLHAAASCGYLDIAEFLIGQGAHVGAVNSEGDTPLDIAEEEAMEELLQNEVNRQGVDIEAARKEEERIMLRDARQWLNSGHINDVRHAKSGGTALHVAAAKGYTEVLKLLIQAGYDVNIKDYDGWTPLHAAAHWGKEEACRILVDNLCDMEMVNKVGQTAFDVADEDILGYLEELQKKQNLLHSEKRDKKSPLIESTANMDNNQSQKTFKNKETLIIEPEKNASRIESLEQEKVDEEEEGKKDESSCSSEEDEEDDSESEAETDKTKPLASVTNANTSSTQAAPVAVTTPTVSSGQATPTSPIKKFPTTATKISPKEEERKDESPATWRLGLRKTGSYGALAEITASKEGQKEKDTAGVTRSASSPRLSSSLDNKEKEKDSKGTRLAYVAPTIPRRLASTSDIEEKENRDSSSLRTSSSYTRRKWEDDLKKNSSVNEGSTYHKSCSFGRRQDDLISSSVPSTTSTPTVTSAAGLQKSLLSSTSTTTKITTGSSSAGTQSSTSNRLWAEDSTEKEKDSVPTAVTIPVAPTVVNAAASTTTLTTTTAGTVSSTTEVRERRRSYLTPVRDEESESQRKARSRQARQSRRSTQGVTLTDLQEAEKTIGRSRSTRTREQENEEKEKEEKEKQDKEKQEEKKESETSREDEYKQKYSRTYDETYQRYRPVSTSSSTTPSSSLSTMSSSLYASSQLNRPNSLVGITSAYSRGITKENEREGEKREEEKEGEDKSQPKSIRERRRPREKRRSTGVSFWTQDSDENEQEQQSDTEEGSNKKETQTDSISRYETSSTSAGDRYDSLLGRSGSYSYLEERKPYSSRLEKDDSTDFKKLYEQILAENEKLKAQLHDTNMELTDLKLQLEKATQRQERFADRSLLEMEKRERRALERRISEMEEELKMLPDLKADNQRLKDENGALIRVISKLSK
MYPT-1(643-943) in pACT2: residues 730-1030 of O14974
UniProt P29067: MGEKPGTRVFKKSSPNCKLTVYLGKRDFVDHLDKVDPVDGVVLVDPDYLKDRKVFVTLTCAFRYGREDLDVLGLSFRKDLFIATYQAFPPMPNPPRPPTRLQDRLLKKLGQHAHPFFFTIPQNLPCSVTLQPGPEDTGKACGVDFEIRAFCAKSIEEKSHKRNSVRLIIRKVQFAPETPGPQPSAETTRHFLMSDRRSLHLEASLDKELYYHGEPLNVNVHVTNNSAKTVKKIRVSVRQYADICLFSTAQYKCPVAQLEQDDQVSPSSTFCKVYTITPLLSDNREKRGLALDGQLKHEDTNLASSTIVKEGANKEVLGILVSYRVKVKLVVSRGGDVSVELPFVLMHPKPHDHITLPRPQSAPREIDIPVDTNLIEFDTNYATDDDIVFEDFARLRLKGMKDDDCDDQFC

Substance	binding [1]	binding [2]	binding [3]	binding [4]	binding [5]
MYPT-1(643-943) in pACT2 (from UniProt O14974-5 643-943) (domain or fragment)	no binding	binds	binds	binds	–
β-arrestin-1-FLAG (from UniProt P29066 1-418)	–	–	–	–	binds
β-arrestin-2-FLAG (from UniProt P29067 1-410)	–	–	–	–	binds

From PMC3821855
